# Results as given in PubChem BioAssay (NCI).
#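 Exposure lasted 48 hours, with cells grown in 96-well plates and compounds tested at five concentrations. The concentration for 50% growth inhibition is given as GI50. TGI is the concentration that stops growth completely.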
# Test system: NCI-H322M lung
# Assay: NCI-60 cell line screen, 48 h
Compound,TGI,GI50
COc1cc(Cn2c3c(c4c(CN(C)C)c(O)ccc42)C(=O)c2ccccc2C3=O)cc(OC)c1,> 100 µM,–
CC(=O)OCC1C(C(C)OC(C)=O)CCC2C1CCC1(C)C(OC(C)=O)CCC21 (stereo not drawn),33.9 µM,–
CCN1CCC[C@H]1c1cc(O)c2c(c1OC)C[C@H]1C[C@H]3[C@H](N)C(=O)C(C(N)=O)=C(O)[C@@]3(O)C(=O)C1=C2O,7.62 µM,0.065 µM
CSc1ccc2c(c1)c(CCN)c(C)n2Cc1ccc(Cl)c(Cl)c1,2.86 µM,1.46 µM
CC(/C=C/c1ncccc1OCCCCCC(=O)O)=N\NC1=NCCN1,> 100 µM,–
COc1cc2cc3c4c(cc(OC)c(OC)c4c2cc1OC)CCN3C(=O)CCCC(=O)O,> 100 µM,–
COc1cc2c(cc1OCCCCNC(=O)c1cc3ccccc3[nH]1)N=CC1CCCN1C2=O (stereo not drawn),53.5 µM,25 µM
CCCCC1Cc2cc(O)ccc2-c2n1c1cc(O)ccc1[n+]2C (stereo not drawn) (tested in a mixture with another compound),> 100 µM,–
ON=C1CCCCC(=NO)CCCC1,> 100 µM,–
CC(=O)CC(=O)CCCC(=O)Nc1ccc(Cl)cc1C,> 100 µM,–
Clc1cc2nc(C3CCCO3)[nH]c2cc1Cl (stereo not drawn),> 100 µM,–
Nc1nc(N)c2cc(CNc3ccc(Cl)c(Cl)c3)ccc2n1,2.21 µM,0.995 µM
C#CCNC(=O)CCC(N)C(=O)O (stereo not drawn),> 100 µM,–
COc1ccc2c(c1)C(=O)c1c-2n(CCCN=[N+]=[N-])c(=O)c2ccccc12,> 100 µM,> 100 µM
COC(=O)N1CC[C@@H]2CCC=C(c3cccc4c3OCO4)[C@@H]21,> 100 µM,–
CCCc1cc(=O)oc2c(C(=O)CC(C)C)c(O)c(CC=C(C)C)c(O)c12,> 50 µM,13.4 µM
CCCCCCN(CCCCCC)CCCNc1nccc2ccccc12,14.1 µM,3.49 µM
NS(=O)(=O)c1ccc(NNC(=O)c2cccc3c(=O)c4ccccc4[nH]c23)cc1,> 100 µM,–

Compound,TGI,GI50
COc1cc(/C=C2\C(=O)N(c3cccc(Cl)c3)C(c3ccccc3)S2(=O)=O)cc(OC)c1OC (stereo not drawn),> 100 µM,–
NC(CCCCCP(=O)(O)O)C(=O)O (stereo not drawn),> 100 µM,–
C=C1CC[C@@H]2C(C)(C)[C@@H](O)CC[C@@]2(C)[C@@H]1COc1ccc2ccc(=O)oc2c1,38.9 µM,–
Fc1ccc(-c2nc(-c3nc4ccc(Cl)cc4[nH]3)cc3c2[nH]c2ccccc23)cc1,18.6 µM,3.54 µM
CC(C)=CC/C=C(/C)[C@H]1CC[C@]2(C)[C@@H]1CC[C@@H]1[C@@]3(C)CCC(=O)NC(C)(C)[C@@H]3CC[C@]12C,> 100 µM,35.4 µM
O=C(Nc1ccc(Cl)cc1)c1cc(S(=O)(=O)Nc2n[nH]c(=O)[nH]2)c(SSc2cc(Cl)c(C(=O)Nc3ccc(Cl)cc3)cc2S(=O)(=O)Nc2n[nH]c(=O)[nH]2)cc1Cl,> 100 µM,–
Cc1cc(C)nc(NS(=O)(=O)c2ccc(Nc3c4ccccc4nc4c(C(=O)NCCN(C)C)ccc(Cl)c34)cc2)n1,6.4 µM,–
O=C(N[C@H](c1ccc(Cl)c(Cl)c1)C1CNC1)c1ccc2cnccc2c1,21.1 µM,7.2 µM
c1ccc(Cc2cccc3cc(-c4ccc(-c5ccccc5)cc4)[nH]c23)cc1,> 100 µM,–
CN(Cc1cnc2nc(N)nc(N)c2n1)c1ccc(C(=O)NC(CCS(=O)(=O)O)C(=O)O)cc1 (stereo not drawn),> 100 µM,–
COc1ccc(-c2cc(-c3ccccc3)n(C3OC(COC(C)=O)C(OC(C)=O)C(OC(C)=O)C3OC(C)=O)c(=S)c2C#N)cc1 (stereo not drawn),27.4 µM,–
Cn1cc(-c2csc(-c3c[nH]c4ncccc34)n2)c2cc(Br)cnc21,> 100 µM,> 100 µM
O=C1C=C2S[C@H]3C[C@]2(C=C1Br)c1c(c(O)c2c4c1=NCCC=4C=N2)N3,8.25 µM,–
Clc1ccc(-c2nc3c(-c4ccc(Cl)cc4)nc(-c4ccccc4)cn3c2-c2ccc(Cl)cc2)cc1,> 50 µM,> 50 µM
COc1ccc(/C=C/c2cc(OC)c(O[Si](C)(C)C(C)(C)C)c(OC)c2)cc1,> 100 µM,–
N#CS/C(C(Cl)=C(Cl)Cl)=C(/Cl)[N+](=O)[O-],33.7 µM,–
COc1ccc2c(=O)c([Se]c3coc4cc(OC)ccc4c3=O)coc2c1,> 100 µM,–
CN(C)CCNC(=O)c1cccc2nc3ccc4ccccc4c3nc12,0.68 µM,–
